{"source": "the supplement of paper PMC11417369", "note": "The other results are listed elsewhere or left out."}
{"tested_on": "PfHDP1 homeodomain (GST-tagged)", "assay": "gcPBM binding intensity (ln(normalized median fluorescence intensity)); higher = stronger DNA binding", "how_it_was_run": "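Each value is the highest Masliner-normalised natural-log median intensity across replicate spots of either orientation of a probe. The probes were primer-extended double-stranded 36-bp intergenic genomic sequences on an Agilent 4 × 180k array, alongside negative controls, exposed for 1 h to GST-tagged P. falciparum DNA-binding domains expressed in E. coli. Bound protein was picked up with Alexa488 anti-GST antibody and scanned at 488 nm.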"}
{"sequence": "TATATATATGTATGATGTACATATATGCATATATAT [XGTACX_site3399]", "gcPBM binding intensity (ln)": 6.67}
{"sequence": "ATAGTATCTGGTAGCTGTACGAATGGTAGAGAGTAG [XGTACX_site2548]", "gcPBM binding intensity (ln)": 7.03}
{"sequence": "ATATATATTCATAATACACACATTCTGTAGCATTAT [CACACA_site2067]", "gcPBM binding intensity (ln)": 7.12}
{"sequence": "ATATATATATTAAAGGTGCACAAATAAATATATACA [GTGCAC_site9532]", "gcPBM binding intensity (ln)": 9.88}
{"sequence": "ATATTTTTTTTCTTCACACACATGAATTATATATAA [CACACA_site3216]", "gcPBM binding intensity (ln)": 7.24}
{"sequence": "ATTTTAACCAATTATTGTACTTGGTTATTCTTTTTT [XGTACX_site7453]", "gcPBM binding intensity (ln)": 6.12}
{"sequence": "AATCTATATTGACACACACACAAAAAAAAAAAAAAA [CACACA_site6739]", "gcPBM binding intensity (ln)": 6.28}
{"sequence": "AATATACACATTGTGAAATAACAAAAAAGGCAAAAA [CACACA_negctrl_site1014]", "gcPBM binding intensity (ln)": 7.23}
{"sequence": "CCTATTTATATATACACACACATATATAAATAAATA [CACACA_site2991]", "gcPBM binding intensity (ln)": 6.95}
{"sequence": "CATATTAGGACAAAGTGTACATATATATATATATAT [XGTACX_site1172]", "gcPBM binding intensity (ln)": 9.34}
{"sequence": "AAATTATTGAAATACGCATGTGTTTTTTTTTTTTTT [TGCATGCA_site391]", "gcPBM binding intensity (ln)": 6.39}
{"sequence": "AATATTACGTCTGGACGTACAAATCTTTTTCGTGTC [XGTACX_site6644]", "gcPBM binding intensity (ln)": 6.1}
{"sequence": "GAAATATTTTGTTGTGCATGCGACATTAAATAAAAA [TGCATGCA_site331]", "gcPBM binding intensity (ln)": 8.6}
{"sequence": "TTTTACTAGATATATACACACATTATACCTATAGAT [CACACA_site7530]", "gcPBM binding intensity (ln)": 6.62}
{"sequence": "ATATAAAGGTTTATTAGTACACATTAGAATACTTTT [XGTACX_site4492]", "gcPBM binding intensity (ln)": 6.22}
{"sequence": "ACATTTTTTTTTTTTTTTTTTTTCTTACATCATGCA [CACACA_negctrl_site1413]", "gcPBM binding intensity (ln)": 6.24}
{"sequence": "TATACGCATATTTTTACACACATATTTTTTCATATA [CACACA_site2546]", "gcPBM binding intensity (ln)": 7.18}
{"sequence": "ATTCAATAATTGTTTTTTTTCTTTTTGTTTTTGTTT [GTGCAC_negctrl_site563]", "gcPBM binding intensity (ln)": 6.34}
{"sequence": "TATCTCATTTGGAATTGTACTAACAGATACTTGTTT [XGTACX_site2672]", "gcPBM binding intensity (ln)": 6.24}
{"sequence": "TATATATAATATATATGTACATATGTATAATATTTA [XGTACX_site4400]", "gcPBM binding intensity (ln)": 6.35}
{"sequence": "TTATGAAAAAAATACTGTACACAATATGACGAAAGT [XGTACX_site2283]", "gcPBM binding intensity (ln)": 7.21}
{"sequence": "TTTTAAATAAATCATGCATGCACATATAATTATATT [TGCATGCA_site151]", "gcPBM binding intensity (ln)": 8.34}
{"sequence": "GAAATATTGAAACACACACACAAACATATATATATA [CACACA_site1911]", "gcPBM binding intensity (ln)": 8.9}
{"sequence": "TTTATAGTTTTAAACAAAGTAATACAAATGTATATA [CACACA_negctrl_site1716]", "gcPBM binding intensity (ln)": 6.23}
{"sequence": "TATAAAAAAAATAAAATAAAATAAAATAGAAAAATA [TGCATGCA_negctrl_site109]", "gcPBM binding intensity (ln)": 6.54}
{"sequence": "ATTACATTTTTGTTTTGTACATATATTTTATAAACA [XGTACX_site494]", "gcPBM binding intensity (ln)": 6.77}
{"sequence": "CGTAATAATTAATGTTGTACCCACCAAAAAAATTAA [XGTACX_site8592]", "gcPBM binding intensity (ln)": 6.4}
{"sequence": "TATATTTATATATATACACACATAATAAAAAATATA [CACACA_site844]", "gcPBM binding intensity (ln)": 6.41}
{"sequence": "TTGTTTTGTAATAAAAAAAAAATAATATAATATAAT [XGTACX_negctrl_site300]", "gcPBM binding intensity (ln)": 6.41}
{"sequence": "ATATTTTTTTTTTTCACACACATTTAGATTGTATTA [CACACA_site3137]", "gcPBM binding intensity (ln)": 6.93}
{"sequence": "AAAAAAAAAAAAAATTGTACGGATTCTTTTTTTTTT [XGTACX_site2898]", "gcPBM binding intensity (ln)": 6.06}
{"sequence": "TTGTATAAAAAACTAAAAAATATAAAATAATAAGTG [CACACA_negctrl_site1704]", "gcPBM binding intensity (ln)": 6.48}
{"sequence": "AAACGTTTATTTTATTGTACATATGAAAAATGCTTC [XGTACX_site6896]", "gcPBM binding intensity (ln)": 6.77}
{"sequence": "AACATTATCAAATAAACCATAAATCAATTCAATATG [CACACA_negctrl_site696]", "gcPBM binding intensity (ln)": 6.23}
{"sequence": "AGTGTATTAAATTTTGAACACACAAAATAAAACATA [CACACA_site8483]", "gcPBM binding intensity (ln)": 6.45}
{"sequence": "TTTAGACTTTTCTATAGTACATATTATATATATATA [XGTACX_site6532]", "gcPBM binding intensity (ln)": 8.46}
{"sequence": "TTTTAATTTAAAAATTAATTTATATATATATATATA [TGCATGCA_negctrl_site447]", "gcPBM binding intensity (ln)": 9.21}
{"sequence": "TATACCTTAATATACACACATACATATATATATATA [CACACA_site1339]", "gcPBM binding intensity (ln)": 9.13}
{"sequence": "TAAATCACAAAATTATGTACTAAGAAGGAGCAACAT [XGTACX_site6742]", "gcPBM binding intensity (ln)": 7.67}
{"sequence": "GGGGAAAAAGCAGGTTGTACAGTGATGTCCATATAA [XGTACX_site7606]", "gcPBM binding intensity (ln)": 6.64}
{"sequence": "TAACAAAGTAAAAGAACATGCAAACACGCACACAGA [TGCATGCA_site374]", "gcPBM binding intensity (ln)": 7.65}
{"sequence": "TATTGAAAAAGTGGAAAAAAGTACATCATACGGGAA [CACACA_negctrl_site1091]", "gcPBM binding intensity (ln)": 6.98}
{"sequence": "GTAAGAAACAGACACACACACATATAAATATAAATA [CACACA_site6515]", "gcPBM binding intensity (ln)": 6.79}
{"sequence": "TTATTGCGCACAATTTGTACATATATATATATAGAA [XGTACX_site7573]", "gcPBM binding intensity (ln)": 8.98}
